Source: the supplement of paper PMC4967469
By IC50 is meant the dose at which the fit gives 50% viability; a fit beyond the top or the lowest dose is shown as a bound at that dose. For AUC the same curve is integrated over the 256-fold range of doses and scaled to a fraction; the more sensitive the line, the further below 1. For part of these data: Where the top dose is marked as inferred, it was derived from the fitted curves, not read from the paper.

What was measured:
Assay in all cases: Viability of human cancer cell lines after 72 h of drug (GDSC screen)
XMD15-27 = compound: C=CC(=O)Nc1ccc(C(=O)c2sc(Nc3ccc(N4CCN(C)CC4)cc3OC)nc2N)cc1 [XMD15-27]; details: top dose 10.24 µM; top dose inferred
Procedure: (§1)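 Human cancer cell lines in 384-well plates, medium with 10% serum, drug for 72 h over a 256-fold dose range (nine 2-fold or five 4-fold steps up to the top dose). Adherent lines were fixed and stained with the nucleic acid dye Syto60, suspension lines read with resazurin; signal relative to control wells, capped at 0 and 100%. One two-parameter sigmoid per drug and line, fitted in a mixed model over all curves with the slope shared within a line.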

Temsirolimus = compound: CO[C@H]1C[C@@H]2CC[C@@H](C)[C@@](O)(O2)C(=O)C(=O)N2CCCC[C@H]2C(=O)O[C@H]([C@H](C)C[C@@H]2CC[C@@H](OC(=O)C(C)(CO)CO)[C@H](OC)C2)CC(=O)[C@H](C)/C=C(\C)[C@@H](O)[C@@H](OC)C(=O)[C@H](C)C[C@H](C)/C=C/C=C/C=C/1C [Temsirolimus]; details: top dose 0.2 µM
Procedure: as §1

SL 0101-1 = compound: CC(=O)O[C@@H]1[C@@H](OC(C)=O)[C@@H](O)[C@H](Oc2c(-c3ccc(O)cc3)oc3cc(O)cc(O)c3c2=O)O[C@H]1C [SL 0101-1]; details: top dose 10 µM; top dose inferred
Procedure: as §1

Cell Line	AUC (XMD15-27)	IC50 (XMD15-27) [µM]	AUC (Temsirolimus)	IC50 (Temsirolimus) [nM]	AUC (SL 0101-1)	IC50 (SL 0101-1) [µM]
8-MG-BA (glioma, adherent)	0.955	> 10.2	0.828	113	0.977	> 10
22RV1 (prostate, adherent)	0.975	> 10.2	0.746	76.6	0.982	> 10
42-MG-BA (glioma, adherent)	0.973	> 10.2	0.507	13.1	0.976	> 10
201T (lung adenocarcinoma, adherent)	0.951	> 10.2	0.861	> 200	0.981	> 10
451Lu (melanoma, adherent)	0.988	> 10.2	0.597	22.8	0.977	> 10
639-V (bladder, adherent)	0.99	> 10.2	0.458	9.77	0.976	> 10
647-V (bladder, adherent)	0.983	> 10.2	0.778	81.6	0.982	> 10
697 (lymphoblastic leukaemia, suspension)	0.919	> 10.2	0.472	10.7	0.982	> 10
5637 (bladder, adherent)	0.989	> 10.2	0.892	198	0.987	> 10
8305C (thyroid, adherent)	0.982	> 10.2	0.802	136	0.976	> 10
8505C (thyroid, adherent)	0.972	> 10.2	0.669	38.2	0.985	> 10
23132-87 (stomach, adherent)	0.986	> 10.2	0.725	55.8	0.986	> 10
A3-KAW (B-cell lymphoma, suspension)	0.946	> 10.2	0.883	139	0.992	> 10
A4-Fuk (B-cell lymphoma, suspension)	0.97	> 10.2	0.752	69.2	0.982	> 10
A101D (melanoma, adherent)	0.981	> 10.2	0.655	37.3	0.896	> 10
A253 (head and neck, adherent)	0.988	> 10.2	0.879	197	0.989	> 10
A375 (melanoma, adherent)	0.991	> 10.2	0.266	3.12	0.982	> 10

Cell Line	AUC (XMD15-27)	IC50 (XMD15-27) [µM]	AUC (Temsirolimus)	IC50 (Temsirolimus) [nM]	AUC (SL 0101-1)	IC50 (SL 0101-1) [µM]
A388 (skin, adherent)	0.983	> 10.2	0.773	89.3	0.978	> 10
A427 (non-small cell lung carcinoma, adherent)	0.985	> 10.2	0.774	79.3	0.981	> 10
A431 (skin, adherent)	0.961	> 10.2	0.904	> 200	0.987	> 10
A498 (kidney, adherent)	0.979	> 10.2	0.821	> 200	0.974	> 10
A704 (kidney, adherent)	0.988	> 10.2	0.864	166	0.989	> 10
A2780 (ovary, semi-adherent)	0.89	> 10.2	0.613	25.9	0.961	> 10
ALL-PO (lymphoblastic leukaemia, suspension)	0.912	> 10.2	0.896	> 200	0.869	> 10
ALL-SIL (T-cell leukaemia, suspension)	0.915	> 10.2	0.77	65.7	0.984	> 10
AM-38 (glioma, semi-adherent)	0.984	> 10.2	0.808	106	0.939	> 10
AMO-1 (haematopoietic neoplasm, suspension)	0.991	> 10.2	0.847	117	0.989	> 10
ARH-77 (myeloma, suspension)	0.959	> 10.2	0.987	> 200	0.977	> 10
ASH-3 (thyroid, adherent)	0.986	> 10.2	0.839	137	0.987	> 10
AU565 (breast, adherent)	0.976	> 10.2	0.739	66.2	0.984	> 10
AsPC-1 (pancreas, adherent)	0.974	> 10.2	0.873	> 200	0.92	> 10
BB30-HNC (head and neck, adherent)	0.985	> 10.2	0.711	48.4	0.968	> 10
BB49-HNC (head and neck, adherent)	0.977	> 10.2	0.771	110	0.955	> 10
BC-1 (B-cell lymphoma, suspension)	0.991	> 10.2	0.951	> 200	0.983	> 10
